Results: publication PMC11911400, “Mechanism of ASF1 engagement by CDAN1” (Nature Communications, 2025)
Residue numbers refer to the chain shown, from its start. No constants are given. Whether binding was seen depends on the method and setting. In cells and extracts the contact can be indirect. Some binding calls cover weakened binding; strength is not graded here.

By UniProt entry, the sequences of proteins in these tests, tags left out.
UniProt Q9NVP2: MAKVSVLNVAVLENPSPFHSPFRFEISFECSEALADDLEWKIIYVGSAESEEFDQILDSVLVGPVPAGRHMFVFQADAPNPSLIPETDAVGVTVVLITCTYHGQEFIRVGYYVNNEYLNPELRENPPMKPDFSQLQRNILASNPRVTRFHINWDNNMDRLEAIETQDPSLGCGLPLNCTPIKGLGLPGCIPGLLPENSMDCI

Tests used:
[1] = target: T1, Strep-CDAN1 BDA1* (M824A/R825A/K826A) (human) (UniProt Q8IWY9); assay: pull-down; Strep-Tactin pulldown of transiently transfected ST-CDAN1 variants from Flp-In 293 T-REx lysates; endogenous ASF1A, ASF1B and CDIN1 detected by immunoblotting; IP buffer with 1% Triton X-100, 1 hr at 4 °C
T1 sequence: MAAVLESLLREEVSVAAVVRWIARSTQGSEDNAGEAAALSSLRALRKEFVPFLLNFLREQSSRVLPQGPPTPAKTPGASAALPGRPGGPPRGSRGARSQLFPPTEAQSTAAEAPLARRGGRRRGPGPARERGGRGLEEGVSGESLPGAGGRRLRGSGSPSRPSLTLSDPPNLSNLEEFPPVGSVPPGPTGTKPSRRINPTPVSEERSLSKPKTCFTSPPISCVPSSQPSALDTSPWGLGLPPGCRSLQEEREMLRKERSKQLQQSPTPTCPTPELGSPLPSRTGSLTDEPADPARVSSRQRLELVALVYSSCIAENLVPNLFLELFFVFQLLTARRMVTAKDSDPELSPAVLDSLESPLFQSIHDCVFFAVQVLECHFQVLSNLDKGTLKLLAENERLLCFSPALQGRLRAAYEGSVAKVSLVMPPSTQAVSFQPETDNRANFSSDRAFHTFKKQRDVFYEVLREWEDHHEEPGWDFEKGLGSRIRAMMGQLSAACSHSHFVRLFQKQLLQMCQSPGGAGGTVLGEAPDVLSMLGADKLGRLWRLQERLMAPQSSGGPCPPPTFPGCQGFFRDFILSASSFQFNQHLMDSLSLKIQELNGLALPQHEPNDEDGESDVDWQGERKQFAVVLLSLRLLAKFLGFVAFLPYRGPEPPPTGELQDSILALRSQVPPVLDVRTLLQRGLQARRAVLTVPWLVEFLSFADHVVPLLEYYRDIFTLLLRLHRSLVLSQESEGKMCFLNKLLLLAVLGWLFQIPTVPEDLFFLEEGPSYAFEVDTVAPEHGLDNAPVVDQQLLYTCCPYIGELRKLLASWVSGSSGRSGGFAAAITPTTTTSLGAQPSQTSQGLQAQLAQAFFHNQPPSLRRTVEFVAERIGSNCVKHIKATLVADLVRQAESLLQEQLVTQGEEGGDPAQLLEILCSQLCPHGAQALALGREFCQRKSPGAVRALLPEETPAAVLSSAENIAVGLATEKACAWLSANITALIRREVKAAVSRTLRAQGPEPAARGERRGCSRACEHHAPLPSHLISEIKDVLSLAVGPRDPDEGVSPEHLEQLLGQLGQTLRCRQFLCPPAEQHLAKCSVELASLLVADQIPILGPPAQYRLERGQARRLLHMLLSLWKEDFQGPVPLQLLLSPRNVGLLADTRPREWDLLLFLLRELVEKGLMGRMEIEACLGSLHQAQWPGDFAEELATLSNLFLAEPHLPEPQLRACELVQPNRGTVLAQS

[2] = target: T2, Strep-CDAN1 HMHA1* BDA1* HMHA2* BDA2* (all four binding elements mutated) (human) (UniProt Q8IWY9); assay: as above
T2 sequence: T1 sequence with S194A, R195A, R196A, R251A, R255A, R258A, R541A, R544A, R548A

Q: With “endogenous ASF1B (from UniProt Q9NVP2 1-202)” as the substance, how does the binding [1] read?
A: binds

Q: And the binding [2]?
A: no binding
